109 sequences from article PMC10668032 can be followed below.

The list shows a part of the results. At the low end of the ranking, values are background and their order means little.

The experiment deals with SIX1-Q177R homeodomain (UniProt Q15475). Description: universal protein binding microarray. The settings on record: Universal all-10-mer PBM (8x60K, AMADID 030236), 300 nM GST-tagged protein, Alexa Fluor 488 anti-GST; buffer, salt, pH and temperature not stated; high values mean tight binding; most listed sequences are background and not binding sites; double strand, one strand shown.
On to AGTTGCGG, for which the binding signal is 0.0493 E-score.

For ACATGGGA, the binding signal was -0.149 E-score.

For the sequence GCGGCATA, the binding signal was -0.064 E-score.

As to AAGATGCA, the binding signal was determined as 0.0269 E-score.

With CAACCGTG, the binding signal was 0.187 E-score.

Consider ACTGTTCG, for which the binding signal is 0.0168 E-score.

As for CCCTGCCA, the binding signal worked out at 0.0244 E-score.

Regarding GGGGATCA, the binding signal was 0.275 E-score.

CCTTAACG: the binding signal was -0.138 E-score.

Take CTTTTGGC: the binding signal was -0.155 E-score.

As for CCGACCAA, the binding signal is 0.005 E-score.

For the sequence CAAAAGAA, the binding signal was -0.185 E-score.

As for GATTGATA, the binding signal is -0.0198 E-score.

Turning to AGAAGCCA, the binding signal is -0.173 E-score.

In the case of AACGAGAC, the binding signal is -0.161 E-score.

On to GTTCGAAA, for which the binding signal was -0.00426 E-score.

Take GCAACTGA: the binding signal was 0.0207 E-score.

Consider CGGAAAAG, for which the binding signal is -0.0876 E-score.

For ATAGTTAC, the binding signal came to 0.0502 E-score.

TAGGATCA: the binding signal was found to be 0.0358 E-score.

Take CCCCAGGC: the binding signal was found to be 0.0175 E-score.

Take CTTAAGAC: the binding signal was -0.123 E-score.

CTTAGTTC: the binding signal was -0.2 E-score.

Consider AACAATTG, for which the binding signal was -0.192 E-score.

Consider GAGATGGC, for which the binding signal is -0.0935 E-score.

GCCCCGCA: the binding signal was -0.103 E-score.

With CTCCCGGA, the binding signal turned out to be 0.0547 E-score.

On to GCAGTGGA, for which the binding signal is -0.0627 E-score.

As for CTTGCCGC, the binding signal is -0.257 E-score.

Take TAGAAGGA: the binding signal was -0.181 E-score.

As to TGAAGCAA, the binding signal is -0.125 E-score.

On to TTATAAAA, for which the binding signal is -0.237 E-score.

Turning to TGTTAGAA, the binding signal turned out to be 0.124 E-score.

For CGGCAACG, the binding signal was -0.0411 E-score.

In the case of CGTATTTC, the binding signal is -0.191 E-score.

Regarding AGGGGGGC, the binding signal is -0.108 E-score.

In the case of ATTGTATG, the binding signal is -0.344 E-score.

Consider ATACCAGC, for which the binding signal was determined as 0.0752 E-score.

With ACCTGTCG, the binding signal came to 0.118 E-score.

As to ACAAAGGC, the binding signal was -0.185 E-score.

CGCCGAAA: the binding signal is -0.00719 E-score.

As for CAGGGCCA, the binding signal was -0.223 E-score.

With ACCAAGCG, the binding signal is 0.119 E-score.

With CAGCATAA, the binding signal is -0.139 E-score.

On to AACCTAGC, for which the binding signal was -0.16 E-score.

As for ACAGCCCT, the binding signal was -0.175 E-score.

As to ATGCGGAG, the binding signal was -0.0279 E-score.

Take GTAGGGCA: the binding signal worked out at 0.0592 E-score.

ATGATTGA: the binding signal turned out to be 0.0256 E-score.

Take CGCTTGAC: the binding signal came to 0.00122 E-score.

As for ATTAGGCC, the binding signal is -0.154 E-score.

Take AGAGGTGA: the binding signal is -0.0211 E-score.

In the case of CGTGCACC, the binding signal was determined as 0.182 E-score.

Take CTATCATA: the binding signal was -0.142 E-score.

On to CGGGAGCA, for which the binding signal is -0.203 E-score.

As to CAGAGCCG, the binding signal was -0.267 E-score.

For CATGAGCC, the binding signal was -0.0813 E-score.

ATCGACCC: the binding signal stood at 0.163 E-score.

Consider TCGGCAGA, for which the binding signal worked out at 0.0205 E-score.

On to AATCCTTG, for which the binding signal worked out at 0.00882 E-score.

For TCAATGGA, the binding signal was -0.046 E-score.

Regarding CCGGTTAG, the binding signal is -0.0489 E-score.

Take CTTTAAAA: the binding signal was -0.21 E-score.

Take CCTAGAAA: the binding signal is -0.11 E-score.

With TATTAATA, the binding signal came to 0.112 E-score.

For the sequence GTTCAATA, the binding signal is -0.12 E-score.

For the sequence TAGGGATA, the binding signal worked out at 0.0133 E-score.

Take GTAACACA: the binding signal stood at 0.223 E-score.

As to CCCGACGC, the binding signal came to 0.151 E-score.

As to ACGGCCTC, the binding signal is -0.0201 E-score.

On to CGAGGCGA, for which the binding signal is -0.117 E-score.

As for ACGACGGA, the binding signal was -0.0158 E-score.

CAAATATC: the binding signal is -0.118 E-score.

Take AACATGAA: the binding signal is -0.159 E-score.

In the case of TAAGTCCA, the binding signal was -0.0628 E-score.

With TCACATCA, the binding signal is -0.24 E-score.

In the case of CAACTGTC, the binding signal was -0.16 E-score.

On to TCTTGACA, for which the binding signal was found to be 0.167 E-score.

CCAGGGCA: the binding signal was found to be 0.0379 E-score.

GTGAAACA: the binding signal was 0.0907 E-score.

Take TGGGCTAA: the binding signal was -0.0864 E-score.

With AAGATCCC, the binding signal is 0.0117 E-score.

For AAAACGCA, the binding signal came to 0.0963 E-score.

On to CTAATAAG, for which the binding signal was -0.18 E-score.

With GTCCTGCA, the binding signal is -0.0061 E-score.

Regarding GGGGCGAA, the binding signal is -0.137 E-score.

For the sequence GTTCTACA, the binding signal was 0.239 E-score.

CGGTCGGA: the binding signal amounted to 0.0239 E-score.

Take AGCGGGAG: the binding signal is -0.233 E-score.

On to CGAATCCC, for which the binding signal is 0.0729 E-score.

For the sequence TGATAACA, the binding signal was 0.153 E-score.

For GCAAAGGA, the binding signal is -0.0149 E-score.

For the sequence GAGGTGGC, the binding signal was -0.214 E-score.

In the case of ATATGTTC, the binding signal was determined as 0.0719 E-score.

As to AGTGTTTA, the binding signal is 0.296 E-score.

As for GTTCACGA, the binding signal is 0.0352 E-score.

In the case of AGTAAGCG, the binding signal was 0.103 E-score.

As for GAATATGA, the binding signal is -0.172 E-score.

Regarding CCCGGTCA, the binding signal is 0.0247 E-score.

As to CAAGCCAC, the binding signal came out at 0.0319 E-score.

For CAGTGGAC, the binding signal is -0.208 E-score.

Consider GTTCCAAC, for which the binding signal is -0.0199 E-score.

As to CAGCGCCG, the binding signal was -0.118 E-score.

Consider ATACCGTG, for which the binding signal amounted to 0.301 E-score.

On to ATTGCGAA, for which the binding signal was -0.00749 E-score.

As for CTTCTCCC, the binding signal was -0.202 E-score.

For AAAGCACA, the binding signal was -0.0697 E-score.

In the case of GTTAAACA, the binding signal was determined as 0.146 E-score.

With AGTTACAA, the binding signal amounted to 0.038 E-score.
